Test results: patent publication US9433687B2, “Anti-Notch3 antibodies and antibody-drug conjugates” (Pfizer Inc., priority 2012, dated 2016)

Tests used:
[1] = system: caspase-3/7 activity in HCC2429; assay: Caspase-Glo 3/7 apoptosis assay, HCC2429; format: cell-based, human; details: 1.1 μg/ml, 48 hours
Description: (§1) Caspase-3 and caspase-7 (caspase-3/7) proteases are key members of the programmed cell death machinery responsible for mediating late apoptotic events in mammalian cells. The activity of caspase-3/7 was measured in Notch3 expressing cell lines that were treated with Notch3-ADCs.
(§2) OVCAR3, HCC2429 and MDA-MB-468/hNotch3 cells were seeded onto opaque white tissue culture plates and incubated overnight. OVCAR3 and HCC2429 were treated at 1.1 μg/ml and MDA-MB-468/hNotch3 cells were treated 1 μg/ml of hu28-vc0101 and huNeg8.8-vc010 (control ADC). After 48 hours incubation, cells were treated with the Caspase-Glo 3/7 reagent (Promega #G8090) for 2 hours at room temperature. Luminescence was measured with a luminometer and following subtraction of background, values were reported as relative luminescence units.

[2] = system: caspase-3/7 activity in OVCAR3; assay: Caspase-Glo 3/7 apoptosis assay, OVCAR3; format: cell-based, human; details: 1.1 μg/ml, 48 hours
Description: as §1, §2

[3] = system: OVCAR3 ovarian xenografts; assay: OVCAR3 ovarian xenograft model

B1: hu28-vc0101: hu28 conjugated to vc0101 linker-payload (conjugate)
heavy: EVQLVESGGGLVQPGGSLRLSCAASGFTFRDYGMTWVRQAPGKGLEWVAYISSGSNYIYYAEAVKGRFTISRDNAKNSLYLQMNSLRAEDTAVYYCARRGPFVLDAWGQGTLVTVSS[letters of human IgG1 constant region omitted]
light: DIQMTQSPSSLSASVGDRVTITCKASQSINRYLHWYQQKPGKAPKLLIYNANGLQTGVPSRFSGSGSGTDFTLTISSLQPEDFATYYCLQHNTWPDTFGGGTKVEIKRTVAAPSVFIFPPSDEQLKSGTASVVCLLNNFYPREAKVQWKVDNALQSGNSQESVTEQDSKDSTYSLSSTLTLSKADYEKHKVYACEVTHQGLSSPVTKSFNRGEC
Relative luminescence units (caspase-3/7) [1]: 128,518 ± 3483 | Relative luminescence units (caspase-3/7) [2]: 209,715 ± 15572 | tumor volume ([3]; DAY 0, dose 0.3 mg/kg intravenously Q4d×4): 168 mm3 | tumor volume ([3]; DAY 0, dose 1 mg/kg intravenously Q4d×4): 169 mm3 | tumor volume ([3]; DAY 0, dose 3 mg/kg intravenously Q4d×4): 169 mm3 | tumor volume ([3]; DAY 2, dose 1 mg/kg, intravenously Q4d×4): 249 mm3 | tumor volume ([3]; DAY 2, dose 3 mg/kg, intravenously Q4d×4): 246 mm3 | tumor volume ([3]; DAY 3, dose 0.3 mg/kg intravenously Q4d×4): 291 mm3 | tumor volume ([3]; DAY 3, dose 1 mg/kg intravenously Q4d×4): 255 mm3 | tumor volume ([3]; DAY 3, dose 3 mg/kg intravenously Q4d×4): 253 mm3 | tumor volume ([3]; DAY 6, dose 0.3 mg/kg intravenously Q4d×4): 302 mm3 | tumor volume ([3]; DAY 6, dose 1 mg/kg intravenously Q4d×4): 226 mm3 | tumor volume ([3]; DAY 6, dose 1 mg/kg, intravenously Q4d×4): 257 mm3 | tumor volume ([3]; DAY 6, dose 3 mg/kg intravenously Q4d×4): 180 mm3 | tumor volume ([3]; DAY 6, dose 3 mg/kg, intravenously Q4d×4): 219 mm3 | tumor volume ([3]; DAY 9, dose 1 mg/kg, intravenously Q4d×4): 282 mm3 | tumor volume ([3]; DAY 9, dose 3 mg/kg, intravenously Q4d×4): 192 mm3 | tumor volume ([3]; DAY 11, dose 0.3 mg/kg intravenously Q4d×4): 394 mm3 | tumor volume ([3]; DAY 11, dose 1 mg/kg intravenously Q4d×4): 216 mm3 | tumor volume ([3]; DAY 11, dose 3 mg/kg intravenously Q4d×4): 113 mm3 | tumor volume ([3]; DAY 12, dose 1 mg/kg, intravenously Q4d×4): 257 mm3 | tumor volume ([3]; DAY 12, dose 3 mg/kg, intravenously Q4d×4): 133 mm3 | tumor volume ([3]; DAY 14, dose 0.3 mg/kg intravenously Q4d×4): 510 mm3 | tumor volume ([3]; DAY 14, dose 1 mg/kg intravenously Q4d×4): 242 mm3 | tumor volume ([3]; DAY 14, dose 3 mg/kg intravenously Q4d×4): 104 mm3 | tumor volume ([3]; DAY 15, dose 1 mg/kg, intravenously Q4d×4): 263 mm3 | tumor volume ([3]; DAY 15, dose 3 mg/kg, intravenously Q4d×4): 99 mm3 | tumor volume ([3]; DAY 18, dose 0.3 mg/kg intravenously Q4d×4): 601 mm3 | tumor volume ([3]; DAY 18, dose 1 mg/kg intravenously Q4d×4): 212 mm3 | tumor volume ([3]; DAY 18, dose 3 mg/kg intravenously Q4d×4): 72 mm3 | tumor volume ([3]; DAY 19, dose 1 mg/kg, intravenously Q4d×4): 236 mm3 | tumor volume ([3]; DAY 19, dose 3 mg/kg, intravenously Q4d×4): 73 mm3 | tumor volume ([3]; DAY 21, dose 0.3 mg/kg intravenously Q4d×4): 685 mm3 | tumor volume ([3]; DAY 21, dose 1 mg/kg intravenously Q4d×4): 190 mm3 | tumor volume ([3]; DAY 21, dose 3 mg/kg intravenously Q4d×4): 57 mm3 | tumor volume ([3]; DAY 22, dose 1 mg/kg, intravenously Q4d×4): 251 mm3 | tumor volume ([3]; DAY 22, dose 3 mg/kg, intravenously Q4d×4): 63 mm3 | tumor volume ([3]; DAY 25, dose 0.3 mg/kg intravenously Q4d×4): 767 mm3 | tumor volume ([3]; DAY 25, dose 1 mg/kg intravenously Q4d×4): 216 mm3 | tumor volume ([3]; DAY 25, dose 3 mg/kg intravenously Q4d×4): 49 mm3 | tumor volume ([3]; DAY 26, dose 1 mg/kg, intravenously Q4d×4): 303 mm3 | tumor volume ([3]; DAY 26, dose 3 mg/kg, intravenously Q4d×4): 63 mm3 | tumor volume ([3]; DAY 28, dose 0.3 mg/kg intravenously Q4d×4): 841 mm3 | tumor volume ([3]; DAY 28, dose 1 mg/kg intravenously Q4d×4): 282 mm3 | tumor volume ([3]; DAY 28, dose 3 mg/kg intravenously Q4d×4): 47 mm3 | tumor volume ([3]; DAY 29, dose 1 mg/kg, intravenously Q4d×4): 396 mm3 | tumor volume ([3]; DAY 29, dose 3 mg/kg, intravenously Q4d×4): 56 mm3 | tumor volume ([3]; DAY 31, dose 0.3 mg/kg intravenously Q4d×4): 926 mm3 | tumor volume ([3]; DAY 31, dose 1 mg/kg intravenously Q4d×4): 292 mm3 | tumor volume ([3]; DAY 31, dose 3 mg/kg intravenously Q4d×4): 48 mm3 | tumor volume ([3]; DAY 33, dose 1 mg/kg, intravenously Q4d×4): 555 mm3 | tumor volume ([3]; DAY 33, dose 3 mg/kg, intravenously Q4d×4): 58 mm3 | tumor volume ([3]; DAY 34, dose 0.3 mg/kg intravenously Q4d×4): 1038 mm3 | tumor volume ([3]; DAY 34, dose 1 mg/kg intravenously Q4d×4): 350 mm3 | tumor volume ([3]; DAY 34, dose 3 mg/kg intravenously Q4d×4): 48 mm3 | tumor volume ([3]; DAY 36, dose 1 mg/kg, intravenously Q4d×4): 683 mm3 | tumor volume ([3]; DAY 36, dose 3 mg/kg, intravenously Q4d×4): 56 mm3 | tumor volume ([3]; DAY 38, dose 0.3 mg/kg intravenously Q4d×4): 1191 mm3 | tumor volume ([3]; DAY 38, dose 1 mg/kg intravenously Q4d×4): 497 mm3 | tumor volume ([3]; DAY 38, dose 3 mg/kg intravenously Q4d×4): 49 mm3 | tumor volume ([3]; DAY 40, dose 1 mg/kg, intravenously Q4d×4): 811 mm3 | tumor volume ([3]; DAY 40, dose 3 mg/kg, intravenously Q4d×4): 58 mm3 | tumor volume ([3]; DAY 41, dose 0.3 mg/kg intravenously Q4d×4): 1254 mm3 | tumor volume ([3]; DAY 41, dose 1 mg/kg intravenously Q4d×4): 559 mm3 | tumor volume ([3]; DAY 41, dose 3 mg/kg intravenously Q4d×4): 40 mm3 | tumor volume ([3]; DAY 42, dose 1 mg/kg, intravenously Q4d×4): 850 mm3 | tumor volume ([3]; DAY 42, dose 3 mg/kg, intravenously Q4d×4): 55 mm3 | tumor volume ([3]; DAY 45, dose 0.3 mg/kg intravenously Q4d×4): 1486 mm3 | tumor volume ([3]; DAY 45, dose 1 mg/kg intravenously Q4d×4): 750 mm3 | tumor volume ([3]; DAY 45, dose 3 mg/kg intravenously Q4d×4): 39 mm3 | tumor volume ([3]; DAY 47, dose 1 mg/kg, intravenously Q4d×4): 1121 mm3 | tumor volume ([3]; DAY 47, dose 3 mg/kg, intravenously Q4d×4): 76 mm3 | tumor volume ([3]; DAY 49, dose 0.3 mg/kg intravenously Q4d×4): 1479 mm3 | tumor volume ([3]; DAY 49, dose 1 mg/kg intravenously Q4d×4): 781 mm3 | tumor volume ([3]; DAY 49, dose 3 mg/kg intravenously Q4d×4): 33 mm3 | tumor volume ([3]; DAY 50, dose 1 mg/kg, intravenously Q4d×4): 1107 mm3 | tumor volume ([3]; DAY 50, dose 3 mg/kg, intravenously Q4d×4): 74 mm3 | tumor volume ([3]; DAY 53, dose 1 mg/kg intravenously Q4d×4): 934 mm3 | tumor volume ([3]; DAY 53, dose 3 mg/kg intravenously Q4d×4): 34 mm3 | tumor volume ([3]; DAY 56, dose 1 mg/kg intravenously Q4d×4): 991 mm3 | tumor volume ([3]; DAY 56, dose 3 mg/kg intravenously Q4d×4): 30 mm3 | tumor volume ([3]; DAY 59, dose 1 mg/kg intravenously Q4d×4): 1149 mm3 | tumor volume ([3]; DAY 59, dose 3 mg/kg intravenously Q4d×4): 33 mm3 | tumor volume ([3]; DAY 63, dose 1 mg/kg intravenously Q4d×4): 1421 mm3 | tumor volume ([3]; DAY 63, dose 3 mg/kg intravenously Q4d×4): 35 mm3 | tumor volume ([3]; DAY 67, dose 3 mg/kg intravenously Q4d×4): 32 mm3 | tumor volume ([3]; DAY 70, dose 3 mg/kg intravenously Q4d×4): 33 mm3 | tumor volume ([3]; DAY 74, dose 3 mg/kg intravenously Q4d×4): 41 mm3 | tumor volume ([3]; DAY 77, dose 3 mg/kg intravenously Q4d×4): 50 mm3 | tumor volume ([3]; DAY 80, dose 3 mg/kg intravenously Q4d×4): 56 mm3 | tumor volume ([3]; DAY 83, dose 3 mg/kg intravenously Q4d×4): 63 mm3 | tumor volume ([3]; DAY 87, dose 3 mg/kg intravenously Q4d×4): 87 mm3 | tumor volume ([3]; DAY 90, dose 3 mg/kg intravenously Q4d×4): 84 mm3 | tumor volume ([3]; DAY 94, dose 3 mg/kg intravenously Q4d×4): 137 mm3 | tumor volume ([3]; DAY 97, dose 3 mg/kg intravenously Q4d×4): 129 mm3 | tumor volume ([3]; DAY 102, dose 3 mg/kg intravenously Q4d×4): 153 mm3 | tumor volume ([3]; DAY 105, dose 3 mg/kg intravenously Q4d×4): 176 mm3 | tumor volume ([3]; DAY 108, dose 3 mg/kg intravenously Q4d×4): 232 mm3 | tumor volume ([3]; DAY 111, dose 3 mg/kg intravenously Q4d×4): 271 mm3 | tumor volume ([3]; DAY 115, dose 3 mg/kg intravenously Q4d×4): 323 mm3 | tumor volume ([3]; DAY 118, dose 3 mg/kg intravenously Q4d×4): 318 mm3 | tumor volume ([3]; DAY 122, dose 3 mg/kg intravenously Q4d×4): 399 mm3
